Paper PMC12136788
This is one part of the list.

T1: UNK ZnF1-3 (human, UniProt Q9C0B0 31-174)
T1 sequence: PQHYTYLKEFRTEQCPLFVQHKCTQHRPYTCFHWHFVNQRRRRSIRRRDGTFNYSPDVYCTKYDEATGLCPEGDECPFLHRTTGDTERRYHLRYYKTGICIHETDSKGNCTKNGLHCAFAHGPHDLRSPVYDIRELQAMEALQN

B1: 65057774_65057894_2814_CDS_ENSMUSG00000029920_ENSMUST00000031984|mouse|control|control (ssRNA)
RNA: GGGAGUUCUACAGUCCGACGAUCAUCCAUGUCUAACUGGUAACUAUUAAUGUGUUGAUACUGUUUACAAAGUACAUGUAGUUCAAAAUCUGUCAUAACUUCCAUGUCUUCAAAGAUCAGGUCAGGGUUGGCCUCACAGUGCGUCAACAGAGGAUUGAGCAUCA
B2: chr9:53370893:53370894:+_ENSMUSG00000033054_ENSMUST00000035850|mus_mus|FALSE|FALSE (ssRNA)
RNA: GGGAGUUCUACAGUCCGACGAUCCGCUGCAUCAUUAGAGAGCUGUUUAUCUGAAGGGGCUGGUUCUUCAAGAUGAAUUUCUAUUUUCUCAGUCACAUUUACACCCAAACUUUCACCAAUCCCAGGAGGUGGUUUGCUCUGCAGCAACAGAGGAUUGAGCAUCA
B3: chrX:67713009:67713010:-_ENSMUSG00000073139_ENSMUST00000101506|mus_mus|FALSE|FALSE (ssRNA)
RNA: GGGAGUUCUACAGUCCGACGAUCUACAGGAGCAAAAAAUAGUGGAUUUAACCACAUUUUUAAGAGACCAAACAAAAAAUGCUACACUGCUUCCCCUUUCUUCUGAAACAGAACAGGCUCACUGGAGGCCUGUGCCAAGGGUAGCAACAGAGGAUUGAGCAUCA
B4: chr3:179287964:179287965:+_ENSG00000136518_ENST00000429709|hu_hu|hu_hu_hu_mus_True|48_48 (ssRNA)
RNA: GGGAGUUCUACAGUCCGACGAUCCUUGAGUGGUGAGAUGGCCUCCAUGUUCUCCCUGGGCACGCGGAGGGCAUUGGUGUCUAUGUAGUAGGUGGGACCGCCCUGCUUGCCUUUGUCACCAUCAAUCUCCAUCAUUGUACUUCCCAACAGAGGAUUGAGCAUCA
B5: chr22:32879901:32879902:+_ENSG00000100225_ENST00000397426|hu_mus|hu_hu_hu_mus_False|78_108 (ssRNA)
RNA: GGGAGUUCUACAGUCCGACGAUCCUCUGCCAUAUGCAUGGCAUCCUGAAUUGACUCAGCUUCAAAAUUUUGACUAGGCCCUUCCAUACUGUCAUCAGUCCAGGCAUCAAAUGGGGUGGCCUGUCCUUGGGAUGAAUCAGUCCCCAACAGAGGAUUGAGCAUCA
B6: chr9:40579289:40579290:+_ENSMUSG00000032024_ENSMUST00000034522|mus_hu|FALSE|FALSE (ssRNA)
RNA: GGGAGUUCUACAGUCCGACGAUCAUUCUUAACCUUACAGGUGUACCGGCCCUCAUCACUGGGCUUCAGAGGUUCAAUCUGCAAGGAGGCAUCUCCUGCCAGGAAAUUGGAAGCAAAGGCCACUCGGCCCUUCUGUUCCUCAGUCAACAGAGGAUUGAGCAUCA
B7: chr1:8037743:8037744:+_ENSG00000116288_ENST00000493373|perfect_dup|motif|central (ssRNA)
RNA: GGGAGUUCUACAGUCCGACGAUCGCCAUUCAUCAUUUUGUCCUUAGCCAGUGGGUGUGUUGUGACCUUGCAUCCAAAACCGGCUUCGUGAGCCAACAGAGCCGUAGGACCUGCACAGAUGGCAGCUAUGAGGCCCUUCCUGCUCAACAGAGGAUUGAGCAUCA
B8: chr3:7442581:7442582:+_ENSMUSG00000027499_ENSMUST00000028999|mus_mus|motif|central (ssRNA)
RNA: GGGAGUUCUACAGUCCGACGAUCUGUACUGUACGAUACAAAACGGCGUAAGUAACAGCACUCACACACAGGGACAUAAUGCGGACUGUGCUCUCUGGAUGGUUCUUUUUGUGAGUCAAUACUCCAGCCAGAGAUACUGAAACUCAACAGAGGAUUGAGCAUCA
B9: chr19:55172049:55172050:-_ENSMUSG00000024978_ENSMUST00000061856|mus_hu|FALSE|FALSE (ssRNA)
RNA: GGGAGUUCUACAGUCCGACGAUCUGUGUGCUUACAUCGACCAACACUGUAUUCUGAUGAAUGUGGCAGAUAAGAAACAUCUAUUGUACCAAGGGUCAGUGCAGAUUCAUCCAUGUCACAAAGUGUAAUUCCCAAAUCAUGUGCCAACAGAGGAUUGAGCAUCA
B10: chr2:175094126:175094127:-_ENSG00000138430_ENST00000344357|hu_hu|motif|central (ssRNA)
RNA: GGGAGUUCUACAGUCCGACGAUCUCUGCUCUCAUUAGGAUCAAUAGUGCAGAACGGGAAGUUUUCUGCUGAAGCCUGACGGUUGGUUAACACAUUGAAGAAAGUAGAUUUCCGUGCUCGGCCUGGGCGAUGACACGGGGUCCCCAACAGAGGAUUGAGCAUCA
B11: chr14:89307221:89307222:+_ENSG00000165533_ENST00000346301|hu_hu|FALSE|FALSE (ssRNA)
RNA: GGGAGUUCUACAGUCCGACGAUCUCCUGUCUGAUUAGUUCCAGGGAGUUUCAAAGACGUUCCAGGGCGUGGAACUUGAGCUAUAGCAUUUUCAUCCAGCAUCAUUUCUGCAAUUCCUUCCUGAUCUACAUCAAUUUCAUCUAUCAACAGAGGAUUGAGCAUCA
B12: chr5:137354059:137354060:-_ENSG00000031003_ENST00000033079|hu_hu|motif|central (ssRNA)
RNA: GGGAGUUCUACAGUCCGACGAUCGUGAAUAUGUAAACUGCCAGGGAUAACAGGUUCAGGAAGUUCUUGAAGAAAAAAUCGGAGAAGGCUAAUAGCUGAGGGAACAUCUGCUUCCUUAACCAAAUCCACCUCUUCUCCGCUGUCCAACAGAGGAUUGAGCAUCA
B13: chr1:163117052:163117053:-_ENSG00000143248_ENST00000313961|hu_hu|FALSE|FALSE (ssRNA)
RNA: GGGAGUUCUACAGUCCGACGAUCAACAUCCCCUGGGAUUUUUCCCAUGUGGGUAUCACUGAGCAAAGCUGCUGUGGGAAGAUAUGUAGAUUAAUGGGAAAUGCAGGGUUAUUAUGGAGGAAAUAACUCACAGGAUGAUUUCAUCAACAGAGGAUUGAGCAUCA
B14: 52896138_52896258_2370_3pUTR_ENSG00000196628_ENST00000354452|human|control|control (ssRNA)
RNA: GGGAGUUCUACAGUCCGACGAUCGGUCUGGGGCUUGUCACUCUUGAGGUGGAGCUGCACCAUGCGGCCGAGCUCUUUGAAAGCCUCGUUGAUGUCACGGACCCGCAGACGCUCUCGGGCAUUGUUGGCCAUCCUCCGCUCCUUCAACAGAGGAUUGAGCAUCA
B15: chr11:100882373:100882374:+_ENSMUSG00000019302_ENSMUST00000044721|mus_mus|mus_mus_mus_hu_True|68_108 (ssRNA)
RNA: GGGAGUUCUACAGUCCGACGAUCUUCCUGGUUAGUGUUGAUUUCCUUCAGUUCAUUUUCAAUCUUCUCGAAAUUGGCCUCUAAGUCAAUCAUGUCCCGGGGGAAGGGAACCUCUGGGUUUUCACCGGUGUCCAUAAUCGGAAUCAACAGAGGAUUGAGCAUCA
B16: chr16:14738297:14738298:+_ENSG00000103429_ENST00000261658|hu_hu|motif|central (ssRNA)
RNA: GGGAGUUCUACAGUCCGACGAUCGUUCAAGGUGGUGGGGUUAACCAGGAUGUCGUAGCAGCAGUGGCAAGAAAAUUCACGGACAGAAAUCUGAGGGCCGGUGCUUUUGAGAGGUUCAUCUCUCUCAAGGUCCAUUGUGUUCACCAACAGAGGAUUGAGCAUCA
B17: 33186989_33187109_4414_3pUTR_ENSG00000170275_ENST00000320954|human|control|control (ssRNA)
RNA: GGGAGUUCUACAGUCCGACGAUCGCACACUAUUUACAGACUCAGGAAUCCCGGAGCAGGGCGUCCACUCGCUGGGUCCCCCACUACUUUCUAGUCCUGUCUCAUCACCCUCUUCCCCACUGAGUUCAAAAGGAAGUUUCUCUGCAACAGAGGAUUGAGCAUCA
B18: chr7:135612270:135612271:-_ENSG00000105887_ENST00000393085|hu_mus|hu_hu_hu_mus_False|48_78 (ssRNA)
RNA: GGGAGUUCUACAGUCCGACGAUCGUUUUUUUCUGAGAUGUUAAAUAGUACUUCAGUAACAAAACUUACUUAACCUUUUAUUAAUGCAUGUAGUACCAAAAGCAGACAUUUUAGCUUCAUUUAUUCAAAAAUAUUAACAUUAAGCAACAGAGGAUUGAGCAUCA
B19: chr4:184596322:184596323:+_ENSG00000168538_ENST00000334690|hu_hu|motif|central (ssRNA)
RNA: GGGAGUUCUACAGUCCGACGAUCCGCAUUUUGUGUAUCUUGUUUCAACUCACUGAAGAAAGCUAUUUUGAACUGAUGCCGGACAAAUAAAAGCUGGUGUGUUGUUUUAUUCAAAAAUUCUUUAUGAGAUUUCACUCUUCUGAUCAACAGAGGAUUGAGCAUCA
B20: chr11:43534790:43534791:+_ENSMUSG00000044950_ENSMUST00000129229|mus_mus|motif|central (ssRNA)
RNA: GGGAGUUCUACAGUCCGACGAUCUCUGAUUUUCUCAUGUGUUCUCCAUUCAUUAAACAAGAAAAAUUAAGGGGUUUCAUACGGUGUAUUUAGCAAAGACAAGGAAAUCUGAAAUCUCUGUUAAGAAUUCAUGUUCCAUGCACCCAACAGAGGAUUGAGCAUCA
B21: chr22:28376736:28376737:-_ENSG00000100154_ENST00000397906|hu_hu|motif|central (ssRNA)
RNA: GGGAGUUCUACAGUCCGACGAUCAUUUUAGAAUUACCUAAAAGAUACUUACUUAUCUAAAUUCUCCAACUAAACUCAGUACGGAUACGACUUUCAGCAUUUCCUUUCUUUAUAAAAUAAAUUAAUGGUUACCCCUAACUAGAUCAACAGAGGAUUGAGCAUCA
B22: chr14:89327608:89327609:+_ENSG00000165533_ENST00000346301|hu_mus|FALSE|FALSE (ssRNA)
RNA: GGGAGUUCUACAGUCCGACGAUCUUCCUCAUAGAUCCUGGCAAUUCCACAAAGCAGGGUCACCUCUCCUGGAAACUUAUCUAAGCCUUGUUUAAAUAGAUUUAAAGCAGUCACAGGUUGAUCCAAUAUGAUAUAAACUUUUGCCAACAGAGGAUUGAGCAUCA

Target: T1, UNK ZnF1-3
Experiment: nsRBNS (natural sequence RNA bind-n-seq); RBNS binding buffer (assumed for nsRBNS): 25 mM Tris pH 7.5, 150 mM KCl, 3 mM MgCl2, 0.01% Triton X-100, 500 ug/ml BSA, 20 U/ml SUPERase-In, 4 C; UNK is unkempt and MSI1 is Musashi-1; names of the RNAs are library labels; protein concentration not given here; high values mean tight binding

Q: For B1, which binding signal is on record?
A: 0.986 enrichment R

Q: For B2, which binding signal is on record?
A: 1.03 enrichment R

Q: Which binding signal does the source give for B3 here?
A: 1.25 enrichment R

Q: Which binding signal does the source give for B4 here?
A: 0.626 enrichment R

Q: With B5 as the binder, how does the binding signal read?
A: 0.816 enrichment R

Q: With B6 as the binder, how does the binding signal read?
A: 0.999 enrichment R

Q: How did the binding signal turn out when B7 was run?
A: 0.883 enrichment R

Q: How did the binding signal turn out when B8 was run?
A: 0.862 enrichment R

Q: For B9, which binding signal is on record?
A: 2.3 enrichment R

Q: B10 was tested. Which binding signal did it give?
A: 0.968 enrichment R

Q: Which binding signal does the source give for B11 here?
A: 0.892 enrichment R

Q: Which binding signal does the source give for B12 here?
A: 0.879 enrichment R

Q: How did the binding signal turn out when B13 was run?
A: 1.52 enrichment R

Q: For B14, which binding signal is on record?
A: 0.552 enrichment R

Q: How did the binding signal turn out when B15 was run?
A: 0.543 enrichment R

Q: With B16 as the binder, how does the binding signal read?
A: 1.04 enrichment R

Q: Which binding signal does the source give for B17 here?
A: 1.31 enrichment R

Q: Which binding signal does the source give for B18 here?
A: 1.34 enrichment R

Q: For B19, which binding signal is on record?
A: 1.09 enrichment R

Q: Which binding signal does the source give for B20 here?
A: 0.978 enrichment R

Q: How did the binding signal turn out when B21 was run?
A: 1.07 enrichment R

Q: B22 was tested. Which binding signal did it give?
A: 1.29 enrichment R
